In PubChem BioAssay AID2147 (National Center for Advancing Translational Sciences (NCATS), 2009):
Hit rate of the full screen: of about 230,000 compounds, about 3,600 (1.6%) were called active. The shares of active, inactive and inconclusive entries below differ from those in the screen. Calls come from the whole dose curve; as a rule, active = well fitted inhibition curve with a large enough effect (not every such curve was filed as active); inconclusive = small, poorly fitted or top-dose-only effect, or another doubt; inactive = no such curve, though single readings can be large or run the other way. Where the call is inconclusive, the potency comes from a doubtful curve fit.

Target: Lysine-specific demethylase 4E (Homo sapiens) (UniProt B2RXH2)
Assay: qHTS Assay for Inhibitors of Human Jumonji Domain Containing 2E (JMJD2E)
Details: JMJD2E catalytic domain, FDH-coupled NADH fluorescence (FDH is formaldehyde dehydrogenase); series mostly up to 57.1 µM; activity change, negative = inhibition: at the top concentration
Note: nearly all actives have a fitted effect of over 50% in size.
Potency is the fitted concentration of half-maximal effect; tags give direction and shape of the fitted curve.
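Throughout, for activity change, negative = inhibition: 0% = wells with enzyme and -100% = buffer wells without enzyme.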

UniProt B2RXH2, sequence (B2RXH2 whole entry, looked up, the tested form may be a part): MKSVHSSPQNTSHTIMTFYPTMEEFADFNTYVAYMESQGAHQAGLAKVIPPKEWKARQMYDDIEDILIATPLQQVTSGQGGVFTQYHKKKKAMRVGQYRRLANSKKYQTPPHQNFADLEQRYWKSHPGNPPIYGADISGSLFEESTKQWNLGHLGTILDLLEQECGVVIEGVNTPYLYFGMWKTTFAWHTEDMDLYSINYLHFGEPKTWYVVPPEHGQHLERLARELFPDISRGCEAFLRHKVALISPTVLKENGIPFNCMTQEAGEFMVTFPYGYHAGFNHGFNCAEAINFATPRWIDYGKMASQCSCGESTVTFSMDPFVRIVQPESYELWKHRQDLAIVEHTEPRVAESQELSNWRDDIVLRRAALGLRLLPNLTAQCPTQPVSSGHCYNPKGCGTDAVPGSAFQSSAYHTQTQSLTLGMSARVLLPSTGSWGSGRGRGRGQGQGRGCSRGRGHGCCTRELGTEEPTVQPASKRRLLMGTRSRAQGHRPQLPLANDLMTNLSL

Compound | Potency | activity change, negative = inhibition
O=C(CN1C(=O)CCC1=O)Nc1cccc2c1C(=O)NC2=O | inconclusive: 31.6 µM [inhibitor, partial curve] | 
O=C(Nc1nc(=O)[nH]s1)c1ccccc1 |  | inactive: 2.46%
O=C(c1nnsc1S(=O)(=O)c1ccc(Cl)cc1)N1CCOCC1 |  | inactive: 4.22%
COc1ccc2oc(C(=O)NC(C)(C)C)c(C)c2c1 | inconclusive: 31.6 µM [inhibitor, partial curve] | 
CCN(CC)S(=O)(=O)c1ccc(-c2nnc(SCC(N)=O)n2CC)cc1 | inconclusive: 3.98 µM [inhibitor, partial curve] | 
O=c1c(-c2ccc(Br)cc2)[n+]([O-])c2ccccc2n1OCc1ccccn1 | inconclusive: 31.6 µM [inhibitor, single point] | 
Cc1c(C)c2cc(Cl)c(O)c(CN(C)C)c2oc1=O | inconclusive: 1 µM [inhibitor, full curve] | 
O=C(CCc1n[nH]c(=O)[nH]c1=O)Nc1cccc([N+](=O)[O-])c1 |  | inactive: 0.393%
CC(=O)Nc1cccc(OCC(=O)/C=C2\N(C)c3ccccc3C2(C)C)c1 | inconclusive: 28.2 µM [inhibitor, partial curve] | 
CCN(CC)C(=O)c1sc2nc(N3CCOCC3)c3c(c2c1N)CCCC3 | inconclusive: 25.1 µM [inhibitor, partial curve] | 
CCOC(=O)c1ccc(NC(=O)CN2C(=O)CCC2=O)cc1 |  | inactive: 4.76%
CC1CCCN(c2nc(NCc3ccco3)nc(N)c2[N+](=O)[O-])C1 (stereo not given) |  | inactive: -4.45%
O=C(c1ccccc1)N1CCN(c2ncnc3sc4c(c23)CCC4)CC1 |  | inactive: 0.334%
Cc1ccc(C)c(N(Cc2cc3ccc(C)cc3[nH]c2=O)C(=O)c2ccco2)c1 | inconclusive: 35.5 µM [inhibitor, single point] | 
c1ccc(-c2nc(-c3ccccn3)nc(-c3ccccn3)n2)nc1 | inconclusive: 39.8 µM [inhibitor, single point] | 
CC(=O)Nc1ccc(S(=O)(=O)Nc2ccc(-c3ccc4nnc(C)n4n3)cc2)cc1 | inconclusive: 28.2 µM [inhibitor, partial curve] | 
COc1cccc(C(=O)Nc2cc(C)ccc2NC(=O)COc2ccccc2)c1 |  | inactive: -6.51%
Cc1cc(-n2c(C)c3c(C)nnc(C)c3c2C)ccc1N | inconclusive: 39.8 µM [inhibitor, single point] | 
OCCN1CCN(c2nc(-c3ccccc3)nc3c2oc2ccccc23)CC1 | inconclusive: 39.8 µM [inhibitor, single point] | 
O=C1CC(c2ccccc2F)C2=C(COC2=O)N1 (stereo not given) |  | inactive: 5.87%
CCOc1ccc2nc(-c3ccccc3)[nH]c2c1 | inconclusive: 25.1 µM [inhibitor, partial curve] | 
COc1ccc(-n2c(C)cc(/C=N/Nc3nnc(C)n3N)c2C)cc1 | inconclusive: 0.708 µM [inhibitor, full curve] | 
Cc1cccc(C(=O)Nc2oc(-c3ccccc3)cc2C#N)c1 | inconclusive: 35.5 µM [inhibitor, single point] | 
C=CCc1cccc2cc(C(=O)N(C)C)c(=O)oc12 | inconclusive: 31.6 µM [inhibitor, single point] | 
Nc1ccc(-c2nc3ccc(-c4nc5ccc(N)cc5[nH]4)cc3[nH]2)cc1 | inconclusive: 28.2 µM [inhibitor, partial curve] | 

Compound | Potency | activity change, negative = inhibition
CCCc1cc(=O)n2[nH]c(C)cc2n1 | inconclusive: 28.2 µM [inhibitor, partial curve] | 
COc1ccc(-c2nnc3n2N=C(C)CS3)cc1 |  | inactive: -0.697%
Cc1cc(C)c(C#N)c(SCC(=O)OC2CCCCC2)n1 | inconclusive: 39.8 µM [inhibitor, single point] | 
CC(=O)N1N=C(c2cccs2)CC1c1cccs1 (stereo not given) | inconclusive: 35.5 µM [inhibitor, single point] | 
CC(C)N1C(=O)C(O)(C2COC(C)(C)CC2=O)c2ccccc21 (stereo not given) |  | inactive: 8.58%
COc1cccc(C(=O)c2sc(NC(C)C)nc2N)c1 | inconclusive: 35.5 µM [inhibitor, single point] | 
O=C(c1cc(C(=O)N2CCOCC2)c2nc3ccccc3n2c1)c1cc(Cl)cc(Cl)c1O |  | inactive: -11.5%
COc1ccc(C(=O)Nc2ccc(Cl)cc2C(=O)NCc2ccco2)cc1OC | inconclusive: 35.5 µM [inhibitor, single point] | 
CN(C)c1ccc(/C=C/C(=O)c2cccc(Br)c2)cc1 |  | inactive: 3.73%
CC1(C)CC(=O)C(C=NCCN2CCN(C3CC(=O)N(c4ccc(Br)cc4)C3=O)CC2)=C(O)C1 (stereo not given) |  | inactive: -1.62%
O=C(O)CCCN=Cc1c(O)c2ccccc2oc1=O |  | inactive: -1.73%
COc1coc(C(O)C[N+](=O)[O-])cc1=O (stereo not given) | inconclusive: 25.1 µM [inhibitor, partial curve] | 
O=C1N=c2ccccc2=C1c1c(O)n(-c2cccc(F)c2)[nH]c1=O | inconclusive: 39.8 µM [inhibitor, single point] | 
COC(=O)c1ccccc1NC(=S)NC(=O)c1cccc2ccccc12 | inconclusive: 31.6 µM [inhibitor, single point] | 
CC1=CC2=NC(=O)/C(=C/c3coc4ccccc4c3=O)C(=N)N2O1 | inconclusive: 22.4 µM [inhibitor, partial curve] | 
O=C(NCc1ccc2c(c1)OCO2)c1cc(=O)[nH]c2ccccc12 | inconclusive: 28.2 µM [inhibitor, single point] | 
C=CCC1(Cl)C(=O)C(Cl)=C(N2CCOCC2)C1(OC)OC (stereo not given) | inconclusive: 0.0562 µM [inhibitor, full curve, poor fit] | 
S=C(N/N=C/c1ccc(Cl)cc1)N1CCOCC1 | inconclusive: 31.6 µM [inhibitor, single point] | 
CCCCCOC(=O)CSc1nc2c(c(=O)[nH]c(=O)n2C)n1CCc1ccccc1 |  | inactive: 2.05%
CCOC(=O)C1=C(C)NC2=C(C(=O)CCC2)C1c1cccnc1 (stereo not given) | inconclusive: 31.6 µM [inhibitor, partial curve] | 
COc1cc(/C=C\C(=O)N2CCC=CC2=O)cc(OC)c1OC |  | inactive: -3.77% [at 25.5 µM]
NC(=O)CSc1nnc2ccc(-c3ccc(Cl)cc3)nn12 | inconclusive: 35.5 µM [inhibitor, single point] | 
CCn1cc(CNC(=O)c2cccc([N+](=O)[O-])c2)c(C)n1 | inconclusive: 35.5 µM [inhibitor, single point] | 
CCCc1nc2c(C)cc(C)cc2c(N)c1CC | inconclusive: 28.2 µM [inhibitor, partial curve] | 
O=[n+]1c2c(n([O-])c3cc(Br)ccc31)CCCC2 |  | inactive: -13.6%

Compound | Potency | activity change, negative = inhibition
CCSc1nc2ccccc2c(=O)n1C1CCOC(C)(C)C1 (stereo not given) |  | inactive: 3.19%
COC(=O)Cc1ccc2oc(-c3cccnc3)nc2c1 | inconclusive: 28.2 µM [inhibitor, partial curve] | 
CC1=NCC(C)c2c1[nH]c1ccccc21 (stereo not given) | inconclusive: 35.5 µM [inhibitor, single point] | 
Clc1ncc(CN2CCN(c3ccccc3)CC2)s1 |  | inactive: -15%
COc1ccc(NS(=O)(=O)c2cc(NC(=O)C3CCCO3)ccc2N2CCCCC2)cc1 (stereo not given) | inconclusive: 39.8 µM [inhibitor, single point] | 
Cc1nc2c(-c3ccc(F)cc3)c(C)nn2c(C)c1CCC(=O)N1CCC(Cc2ccccc2)CC1 | inconclusive: 39.8 µM [inhibitor, single point] | 
CC(C)(C)n1nnnc1SCC(=O)Nc1nn(-c2ccccc2)nc1C(N)=O | inconclusive: 25.1 µM [inhibitor, partial curve] | 
COc1ccc(NC(=O)c2ccc3c(=O)n(Cc4ccco4)c(=S)[nH]c3c2)c(OC)c1 |  | inactive: 0.0761%
CCOc1cc2[nH]c(=O)n(CCCN3CCCC3=O)c(=O)c2cc1OCC | inconclusive: 25.1 µM [inhibitor, partial curve] | 
COC(=O)c1ccc(C(NC(=O)OCc2ccccc2)/C(=C/[C@@H](C)C(=O)NCc2ccncc2)c2cccnc2)cc1 (stereo not given in full) |  | inactive: 15.4%
CC(C)NC(=O)c1ccc2c(=O)n(C3CCCC3)c(=S)[nH]c2c1 |  | inactive: -4.13%
COc1ccc(C(C)=O)c2c1OCCO2 | inconclusive: 39.8 µM [inhibitor, single point] | 
O=C(NCCN1CCCCC1)c1ccc(=O)oc1 | inconclusive: 20 µM [inhibitor, partial curve] | 
Brc1cc2c(cc1/C=N/Nc1nc3ccccc3s1)OCO2 |  | inactive: 3.43%
Cc1cc2cc(C)c(NCCNC(=O)c3cccc(F)c3)nc2cc1C | inconclusive: 22.4 µM [inhibitor, partial curve] | 
CCCCC1C(C#N)=C(C)NC2=C1C(=O)CC(C)(C)C2 (stereo not given) | inconclusive: 28.2 µM [inhibitor, partial curve] | 
CCCCCCn1c(=O)[nH]c2nc3cc(N)c(C)cc3nc2c1=O |  | inactive: -0.293%
Cc1c(Cc2ccccc2)c(=O)oc2cc(OCC(N)=O)ccc12 | inconclusive: 28.2 µM [inhibitor, partial curve] | 
Clc1ccc(-c2cn3cccnc3n2)cc1Cl | inconclusive: 25.1 µM [inhibitor, partial curve] | 
Oc1ccc(Cl)c2cccnc12 | inconclusive: 25.1 µM [inhibitor, single point] | 
CC(Oc1ccc(Br)cc1)C(=O)N1CCC(C(N)=O)CC1 (stereo not given) |  | inactive: 13%
Cc1sc2ncn(CC(=O)Nc3ccccc3F)c(=O)c2c1-c1ccccc1 | inconclusive: 39.8 µM [inhibitor, single point] | 
Cc1cc(C)n(S(=O)(=O)/C=C/c2ccccc2)n1 |  | inactive: -1.37%
COCCCNC(=O)CSc1ccsc1[N+](=O)[O-] |  | inactive: -10.4%
COCCn1nnnc1C(c1ccccn1)N1CCN(c2cccc(C)c2C)CC1 (stereo not given) | inconclusive: 25.1 µM [inhibitor, single point] | 
